Results as given in the supplement of paper PMC12578646, “Prodrug florfenicol amine is activated by intrinsic resistance to target Mycobacterium abscessus” (Nature Microbiology, 2025).

Assays:
[1] = system: Mycobacterium abscessus ATCC 19977 Eis2 E120fs
Protocol: (§1)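 384-well two-fold dose series, two replicates; 5 days at 37 °C, then 24 h with resazurin; fluorescence scaled to growth and killed controls.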

[2] = system: Mycobacterium abscessus ATCC 19977 Eis2 T258R
Protocol: as §1

[3] = system: Mycobacterium abscessus ATCC 19977 Eis2 Y227D
Protocol: as §1

[4] = system: Mycobacterium abscessus ATCC 19977 Eis2 Y255*
Protocol: as §1

[5] = system: Mycobacterium abscessus ATCC 19977 Eis2 Y284*
Protocol: as §1

[6] = system: Mycobacterium abscessus ATCC 19977 WhiB7 A51T
Protocol: as §1

[7] = system: Mycobacterium abscessus ATCC 19977 WhiB7 F24fs
Protocol: as §1

[8] = system: Mycobacterium abscessus ATCC 19977 WhiB7 L37P
Protocol: as §1

[9] = system: Mycobacterium abscessus ATCC 19977 WhiB7 R76del
Protocol: as §1

[10] = system: Mycobacterium abscessus ATCC 19977 WhiB7 T70fs
Protocol: as §1

[11] = system: Mycobacterium abscessus ATCC 19977 Δeis2
Protocol: as §1

[12] = system: Mycobacterium abscessus ATCC 19977 ΔwhiB7
Protocol: as §1

[13] = system: Mycobacterium abscessus ATCC 19977 Eis2 E120fs; assay: growth relative to untreated wells; higher = more growth (less inhibition)
Protocol: as §1

[14] = system: Mycobacterium abscessus ATCC 19977 Eis2 T258R; assay: as above
Protocol: as §1

[15] = system: Mycobacterium abscessus ATCC 19977 Eis2 Y227D; assay: as above
Protocol: as §1

[16] = system: Mycobacterium abscessus ATCC 19977 Eis2 Y255*; assay: as above
Protocol: as §1

[17] = system: Mycobacterium abscessus ATCC 19977 Eis2 Y284*; assay: as above
Protocol: as §1

[18] = system: Mycobacterium abscessus ATCC 19977 WhiB7 A51T; assay: as above
Protocol: as §1

[19] = system: Mycobacterium abscessus ATCC 19977 WhiB7 F24fs; assay: as above
Protocol: as §1

[20] = system: Mycobacterium abscessus ATCC 19977 WhiB7 L37P; assay: as above
Protocol: as §1

[21] = system: Mycobacterium abscessus ATCC 19977 WhiB7 R76del; assay: as above
Protocol: as §1

[22] = system: Mycobacterium abscessus ATCC 19977 WhiB7 T70fs; assay: as above
Protocol: as §1

[23] = system: Mycobacterium abscessus ATCC 19977 Δeis2; assay: as above
Protocol: as §1

[24] = system: Mycobacterium abscessus ATCC 19977 ΔwhiB7; assay: as above
Protocol: as §1

C[C@@H]1NC(=O)[C@@H](N)CNC(=O)[C@H](C2CCNC(=N)N2)NC(=O)/C(=C/NC(N)=O)NC(=O)[C@H](CNC(=O)CC(N)CCCN)NC1=O.N=C1NCCC([C@@H]2NC(=O)/C(=C/NC(N)=O)NC(=O)[C@H](CNC(=O)CC(N)CCCN)NC(=O)[C@H](CO)NC(=O)[C@@H](N)CNC2=O)N1 (stereo partly specified) [capreomycin]
Conditions	IC50 [µg/mL]
[1]	3.53
[2]	3.66
[3]	3.38
[4]	3.55
[5]	3.52
[6]	3.4
[7]	3.49
[8]	3.51
[9]	3.51
[10]	3.71
[11]	3.6
[12]	3.57

Conditions	growth [%]
[13], 0.5 µg/mL	118 ± 3.9
[13], 1 µg/mL	126 ± 6
[13], 2 µg/mL	140 ± 5.2
[13], 4 µg/mL	23.1 ± 1.3
[13], 8 µg/mL	4.73 ± 0.15
[13], 16 µg/mL	1.31 ± 0.58
[13], 32 µg/mL	0.876 ± 0.17
[13], 64 µg/mL	0.449 ± 0.51
[13], 128 µg/mL	-0.0341 ± 0.94
[13], 256 µg/mL	0.766 ± 0.056
[13], 512 µg/mL	0.987 ± 0.53
[13], 1024 µg/mL	1.55 ± 0.77
[14], 0.5 µg/mL	113 ± 14
[14], 1 µg/mL	119.5 ± 0.7
[14], 2 µg/mL	134.37 ± 0.0069
[14], 4 µg/mL	29.4 ± 17
[14], 8 µg/mL	1.54 ± 0.083
[14], 16 µg/mL	0.295 ± 0.25
[14], 32 µg/mL	-0.237 ± 0.35
[14], 64 µg/mL	-0.654 ± 0.75
[14], 128 µg/mL	-0.5 ± 0.014
[14], 256 µg/mL	-0.403 ± 0.074
[14], 512 µg/mL	0.194 ± 0.017
[14], 1024 µg/mL	0.34 ± 0.24
[15], 0.5 µg/mL	123.8 ± 1.1
[15], 1 µg/mL	126 ± 4.8
[15], 2 µg/mL	150 ± 12
[15], 4 µg/mL	20.2 ± 2.3
[15], 8 µg/mL	21.8 ± 24
[15], 16 µg/mL	1.97 ± 0.18
[15], 32 µg/mL	1.24 ± 0.85
[15], 64 µg/mL	1.33 ± 0.43
[15], 128 µg/mL	1.37 ± 0.23
[15], 256 µg/mL	1.64 ± 0.28
[15], 512 µg/mL	2.29 ± 0.34
[15], 1024 µg/mL	2.65 ± 0.34
[16], 0.5 µg/mL	113.8 ± 0.25
[16], 1 µg/mL	126.2 ± 0.97
[16], 2 µg/mL	143 ± 6
[16], 4 µg/mL	15.7 ± 0.7
[16], 8 µg/mL	0.798 ± 2
[16], 16 µg/mL	-0.497 ± 2.8
[16], 32 µg/mL	-0.78 ± 2.5
[16], 64 µg/mL	-1.06 ± 2.1
[16], 128 µg/mL	-1.38 ± 2.2
[16], 256 µg/mL	-0.716 ± 2.7
[16], 512 µg/mL	-0.456 ± 2.3
[16], 1024 µg/mL	-0.208 ± 1.8
[17], 0.5 µg/mL	121 ± 3.3
[17], 1 µg/mL	121.5 ± 0.95
[17], 2 µg/mL	139 ± 4.8
[17], 4 µg/mL	18.1 ± 1
[17], 8 µg/mL	2.85 ± 0.57
[17], 16 µg/mL	0.96 ± 0.37
[17], 32 µg/mL	0.251 ± 0.073
[17], 64 µg/mL	-0.229 ± 0.044
[17], 128 µg/mL	-0.471 ± 0.26
[17], 256 µg/mL	0.518 ± 0.15
[17], 512 µg/mL	0.442 ± 0.54
[17], 1024 µg/mL	1.21 ± 0.09
[18], 0.5 µg/mL	114 ± 2.2
[18], 1 µg/mL	122 ± 8.8
[18], 2 µg/mL	146 ± 2.3
[18], 4 µg/mL	19.1 ± 5.7
[18], 8 µg/mL	16.6 ± 20
[18], 16 µg/mL	0.686 ± 0.39
[18], 32 µg/mL	0.587 ± 0.61
[18], 64 µg/mL	-0.0268 ± 0.56
[18], 128 µg/mL	-0.0162 ± 0.1
[18], 256 µg/mL	0.338 ± 0.45
[18], 512 µg/mL	1.07 ± 0.36
[18], 1024 µg/mL	1.58 ± 0.63
[19], 0.5 µg/mL	119.1 ± 0.76
[19], 1 µg/mL	120 ± 2.6
[19], 2 µg/mL	135 ± 1.7
[19], 4 µg/mL	11.4 ± 0.31
[19], 8 µg/mL	1.48 ± 0.31
[19], 16 µg/mL	1.16 ± 0.24
[19], 32 µg/mL	0.805 ± 0.51
[19], 64 µg/mL	0.28 ± 0.13
[19], 128 µg/mL	0.576 ± 0.28
[19], 256 µg/mL	0.201 ± 0.061
[19], 512 µg/mL	0.913 ± 0.28
[19], 1024 µg/mL	1.6 ± 0.36
[20], 0.5 µg/mL	114 ± 11
[20], 1 µg/mL	128 ± 4.3
[20], 2 µg/mL	136.1 ± 0.23
[20], 4 µg/mL	13.3 ± 0.78
[20], 8 µg/mL	1.32 ± 0.14
[20], 16 µg/mL	0.68 ± 0.074
[20], 32 µg/mL	0.343 ± 0.054
[20], 64 µg/mL	0.195 ± 0.3
[20], 128 µg/mL	-0.116 ± 0.063
[20], 256 µg/mL	0.482 ± 0.15
[20], 512 µg/mL	1 ± 0.092
[20], 1024 µg/mL	1.1 ± 0.048
[21], 0.5 µg/mL	116 ± 1.5
[21], 1 µg/mL	116 ± 3
[21], 2 µg/mL	136 ± 2.6
[21], 4 µg/mL	13.4 ± 1.8
[21], 8 µg/mL	1.25 ± 0.64
[21], 16 µg/mL	-0.0257 ± 1.6
[21], 32 µg/mL	0.128 ± 0.83
[21], 64 µg/mL	-0.0579 ± 0.54
[21], 128 µg/mL	-0.442 ± 0.23
[21], 256 µg/mL	-0.208 ± 0.5
[21], 512 µg/mL	0.668 ± 0.63
[21], 1024 µg/mL	1 ± 1
[22], 0.5 µg/mL	116 ± 5.5
[22], 1 µg/mL	118 ± 10
[22], 2 µg/mL	130 ± 2.9
[22], 4 µg/mL	19.3 ± 7.6
[22], 8 µg/mL	-0.988 ± 0.54
[22], 16 µg/mL	-2.1 ± 1.2
[22], 32 µg/mL	-2.36 ± 0.1
[22], 64 µg/mL	-2.07 ± 1.3
[22], 128 µg/mL	-1.98 ± 1.3
[22], 256 µg/mL	-1.82 ± 0.97
[22], 512 µg/mL	0.33 ± 2.9
[22], 1024 µg/mL	-0.694 ± 1.1
[23], 0.5 µg/mL	106 ± 2
[23], 1 µg/mL	119 ± 1.3
[23], 2 µg/mL	137 ± 2.3
[23], 4 µg/mL	26.1 ± 1.9
[23], 8 µg/mL	2.69 ± 1.9
[23], 16 µg/mL	0.457 ± 0.43
[23], 32 µg/mL	-0.264 ± 0.034
[23], 64 µg/mL	-0.648 ± 0.28
[23], 128 µg/mL	1.68 ± 3.4
[23], 256 µg/mL	-0.363 ± 0.11
[23], 512 µg/mL	0.101 ± 0.088
[23], 1024 µg/mL	0.656 ± 0.048
[24], 0.5 µg/mL	111 ± 2.3
[24], 1 µg/mL	133 ± 5.1
[24], 2 µg/mL	155 ± 7.5
[24], 4 µg/mL	6.4 ± 1.5
[24], 8 µg/mL	-0.338 ± 4.3
[24], 16 µg/mL	-0.815 ± 4.3
[24], 32 µg/mL	-1.5 ± 3.7
[24], 64 µg/mL	7.37 ± 8.6
[24], 128 µg/mL	-1.6 ± 4.6
[24], 256 µg/mL	-1.48 ± 4.6
[24], 512 µg/mL	-0.81 ± 5.1
[24], 1024 µg/mL	-0.752 ± 4.7

± gives the standard deviation of the averaged measurements. M. abscessus ATCC 19977 and its deletion, point and complemented mutants after 5 days of drug at 37 °C plus 24 h of resazurin. Growth in % of untreated wells at the dose given (lower = more inhibition); checkerboards give % inhibition (higher = more inhibition); IC50 from the fitted curve (lower = more potent). No active / inactive call. IC50 values come from the same 384-well curves. Growth is not capped and can exceed 100%. The direction of the checkerboard scale is read from the raw signals. Capreomycin is a mixture.
